Reference: the supplement of paper PMC4604168 (melanoma cell lines)
This is one part of the list. Single values are uncertain, as repeats are few or missing.

What was measured:
Experiment in all cases: cell count relative to DMSO control; melanoma cells; higher = more viable cells
Conditions in all cases: library dose: low library concentration; 72 h
WM115 = tested on: WM115
WM1716 = tested on: WM1716
WM1745 = tested on: WM1745
WM3526 = tested on: WM3526
WM3619 = tested on: WM3619
WM451Lu = tested on: WM451Lu
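Further: cell number obtained by counting DAPI-stained nuclei in high-throughput microscope images with image analysis software, screen run in 1,536-well plates.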

Row | SMILES | cell count (WM115) | cell count (WM1716) | cell count (WM1745) | cell count (WM3526) | cell count (WM3619) | cell count (WM451Lu)
1 | CC(=O)c1c(C)c2cnc(Nc3ccc(N4CCNCC4)cn3)nc2n(C2CCCC2)c1=O [palbociclib] + O=C(O)C(=O)Nc1sc2c(c1C(=O)O)CCNC2 [TCS401] (first compound 0.04 µM, partner dose 1.66667 µM) | 69.9% | 59.5% | 63.6% | 65.3% | 73.2% | 79.3%
2 | CO[C@H]1C[C@@H]2CC[C@@H](C)[C@@](O)(O2)C(=O)C(=O)N2CCCC[C@H]2C(=O)O[C@H]([C@H](C)C[C@@H]2CC[C@@H](OCCO)[C@H](OC)C2)CC(=O)[C@H](C)/C=C(\C)[C@@H](O)[C@@H](OC)C(=O)[C@H](C)C[C@H](C)/C=C/C=C/C=C/1C [everolimus] + COCC[n+]1c2c(n(Cc3cnccn3)c1C)C(=O)c1ccccc1C2=O [YM155] (first compound 0.02 µM, partner dose 0.0004 µM) | 88.3% | 83% | 78.7% | 83.9% | 81.3% | 71.3%
3 | CO[C@H]1C[C@@H]2CC[C@@H](C)[C@@](O)(O2)C(=O)C(=O)N2CCCC[C@H]2C(=O)O[C@H]([C@H](C)C[C@@H]2CC[C@@H](OCCO)[C@H](OC)C2)CC(=O)[C@H](C)/C=C(\C)[C@@H](O)[C@@H](OC)C(=O)[C@H](C)C[C@H](C)/C=C/C=C/C=C/1C [everolimus] + CCCS(=O)(=O)Nc1ccc(F)c(C(=O)c2c[nH]c3ncc(Cl)cc23)c1F [PLX4720] (first compound 0.02 µM, partner dose 0.08 µM) | 74.6% | 76.4% | 84.4% | 66.2% | 65.4% | 62.2%
4 | CO[C@H]1C[C@@H]2CC[C@@H](C)[C@@](O)(O2)C(=O)C(=O)N2CCCC[C@H]2C(=O)O[C@H]([C@H](C)C[C@@H]2CC[C@@H](OCCO)[C@H](OC)C2)CC(=O)[C@H](C)/C=C(\C)[C@@H](O)[C@@H](OC)C(=O)[C@H](C)C[C@H](C)/C=C/C=C/C=C/1C [everolimus] + O=C(Nc1cccc(Cl)c1)Nc1ncc(CCNc2ncnc3ccsc23)s1 [SNS314] (first compound 0.02 µM, partner dose 0.0008 µM) | 67.4% | 90.2% | 82.4% | 74.6% | 61.9% | 68.9%
5 | Nc1ccn([C@@H]2O[C@H](CO)[C@@H](O)C2(F)F)c(=O)n1 [gemcitabine] + CCc1ccc(CCOc2ccc(CC3SC(=O)NC3=O)cc2)nc1 [pioglitazone] (first compound 0.0004 µM, partner dose 2 µM) | 93% | 82.7% | 76.5% | 106% | 96.1% | 104%
6 | CC(=O)O[C@@]12CO[C@@H]1C[C@H](O)[C@@]1(C)C(=O)[C@H](O)C3=C(C)[C@@H](OC(=O)[C@H](O)[C@@H](NC(=O)OC(C)(C)C)c4ccccc4)C[C@@](O)([C@@H](OC(=O)c4ccccc4)[C@H]21)C3(C)C [Docetaxel] + N#Cc1c(O)c2c(-c3ccc(-c4ccccc4O)cc3)csc2[nH]c1=O [A769662] (first compound 0.0001 µM, partner dose 2 µM) | 66.3% | 41.9% | 53.5% | 43.4% | 79.7% | 74.3%
7 | CC(=O)O[C@@]12CO[C@@H]1C[C@H](O)[C@@]1(C)C(=O)[C@H](O)C3=C(C)[C@@H](OC(=O)[C@H](O)[C@@H](NC(=O)OC(C)(C)C)c4ccccc4)C[C@@](O)([C@@H](OC(=O)c4ccccc4)[C@H]21)C3(C)C [Docetaxel] + CN(NC(=O)CC(=O)NN(C)C(=S)c1ccccc1)C(=S)c1ccccc1 [STA4783] (first compound 0.0001 µM, partner dose 0.006 µM) | 45.9% | 26.2% | 40.3% | 30.2% | 53.6% | 38.4%
8 | Nc1nc(F)nc2c1ncn2[C@@H]1O[C@H](CO)[C@@H](O)[C@@H]1O [fludarabine] + O=C1NC(=O)/C(=C/c2ccc(-c3ccc(F)cc3O)o2)S1 [AS252424] (first compound 0.2 µM, partner dose 1 µM) | 95.2% | 101% | 84.6% | 25.6% | 89.9% | 40.7%
9 | CC(=O)c1c(C)c2cnc(Nc3ccc(N4CCNCC4)cn3)nc2n(C2CCCC2)c1=O [palbociclib] + Nc1cccc2c1CN(C1CCC(=O)NC1=O)C2=O [lenalidomide] (first compound 0.04 µM, partner dose 1 µM) | 67.8% | 71.7% | 65.2% | 63.7% | 53.3% | 75.2%
10 | Nc1nc(F)nc2c1ncn2[C@@H]1O[C@H](CO)[C@@H](O)[C@@H]1O [fludarabine] + CC(C)(C)c1cnc(CSc2cnc(NC(=O)C3CCNCC3)s2)o1 [SNS-032] (first compound 0.2 µM, partner dose 0.01 µM) | 94.7% | 103% | 86.8% | 25.6% | 98.5% | 40.5%
11 | Nc1nc(F)nc2c1ncn2[C@@H]1O[C@H](CO)[C@@H](O)[C@@H]1O [fludarabine] + COC(=O)c1sccc1S(=O)(=O)Nc1ccc(Nc2ccccc2)cc1OC [GSK0660] (first compound 0.2 µM, partner dose 1 µM) | 100% | 103% | 109% | 27.2% | 102% | 46.9%
12 | CC(=O)O[C@@]12CO[C@@H]1C[C@H](O)[C@@]1(C)C(=O)[C@H](O)C3=C(C)[C@@H](OC(=O)[C@H](O)[C@@H](NC(=O)OC(C)(C)C)c4ccccc4)C[C@@](O)([C@@H](OC(=O)c4ccccc4)[C@H]21)C3(C)C [Docetaxel] + CS(=O)(=O)CCNCc1ccc(-c2ccc3ncnc(Nc4ccc(OCc5cccc(F)c5)c(Cl)c4)c3c2)o1 [lapatinib] (first compound 0.0001 µM, partner dose 0.8 µM) | 54.1% | 46.7% | 46.1% | 53.8% | 53.4% | 62.4%
13 | CO[C@H]1C[C@@H]2CC[C@@H](C)[C@@](O)(O2)C(=O)C(=O)N2CCCC[C@H]2C(=O)O[C@H]([C@H](C)C[C@@H]2CC[C@@H](OCCO)[C@H](OC)C2)CC(=O)[C@H](C)/C=C(\C)[C@@H](O)[C@@H](OC)C(=O)[C@H](C)C[C@H](C)/C=C/C=C/C=C/1C [everolimus] + COC(=O)c1sccc1S(=O)(=O)Nc1ccc(Nc2ccccc2)cc1OC [GSK0660] (first compound 0.02 µM, partner dose 1 µM) | 76.2% | 93.2% | 74.4% | 53.2% | 75.9% | 70.3%
14 | CC(=O)O[C@@]12CO[C@@H]1C[C@H](O)[C@@]1(C)C(=O)[C@H](O)C3=C(C)[C@@H](OC(=O)[C@H](O)[C@@H](NC(=O)OC(C)(C)C)c4ccccc4)C[C@@](O)([C@@H](OC(=O)c4ccccc4)[C@H]21)C3(C)C [Docetaxel] + COc1cc(Nc2ncc(F)c(Nc3ccc4c(n3)NC(=O)C(C)(C)O4)n2)cc(OC)c1OC [Tamatinib] (first compound 0.0001 µM, partner dose 0.4 µM) | 56.9% | 29.2% | 28.9% | 39.3% | 58.2% | 45.2%
15 | CC(=O)O[C@@]12CO[C@@H]1C[C@H](O)[C@@]1(C)C(=O)[C@H](O)C3=C(C)[C@@H](OC(=O)[C@H](O)[C@@H](NC(=O)OC(C)(C)C)c4ccccc4)C[C@@](O)([C@@H](OC(=O)c4ccccc4)[C@H]21)C3(C)C [Docetaxel] + CCCS(=O)(=O)Nc1ccc(F)c(C(=O)c2c[nH]c3ncc(Cl)cc23)c1F [PLX4720] (first compound 0.0001 µM, partner dose 0.08 µM) | 71.8% | 40.1% | 58.6% | 36% | 75.7% | 86.3%
16 | CC(=O)c1c(C)c2cnc(Nc3ccc(N4CCNCC4)cn3)nc2n(C2CCCC2)c1=O [palbociclib] + COc1ccc(Cl)c(Nc2nc3ccccc3nc2NS(=O)(=O)c2cccc(NC(=O)C(C)(C)N)c2)c1 [XL147] (first compound 0.04 µM, partner dose 0.8 µM) | 95.4% | 67.7% | 88.3% | 51.8% | 80.9% | 87.1%
17 | CC(=O)O[C@@]12CO[C@@H]1C[C@H](O)[C@@]1(C)C(=O)[C@H](O)C3=C(C)[C@@H](OC(=O)[C@H](O)[C@@H](NC(=O)OC(C)(C)C)c4ccccc4)C[C@@](O)([C@@H](OC(=O)c4ccccc4)[C@H]21)C3(C)C [Docetaxel] + C=CCn1c(=O)c2cnc(Nc3ccc(N4CCN(C)CC4)cc3)nc2n1-c1cccc(C(C)(C)O)n1 [MK1775] (first compound 0.0001 µM, partner dose 0.02 µM) | 54.7% | 32.4% | 33.9% | 42% | 64.7% | 51.8%
18 | CC(=O)O[C@@]12CO[C@@H]1C[C@H](O)[C@@]1(C)C(=O)[C@H](O)C3=C(C)[C@@H](OC(=O)[C@H](O)[C@@H](NC(=O)OC(C)(C)C)c4ccccc4)C[C@@](O)([C@@H](OC(=O)c4ccccc4)[C@H]21)C3(C)C [Docetaxel] + COc1cc2ncnc(Nc3ccc(Oc4ccccc4)cc3)c2cc1OC [SrcI1] (first compound 0.0001 µM, partner dose 2 µM) | 53.8% | 36.4% | 42.4% | 43% | 81.8% | 60%
19 | Nc1ccn([C@@H]2O[C@H](CO)[C@@H](O)C2(F)F)c(=O)n1 [gemcitabine] + C[C@@H]1CCN(C(=O)CC#N)C[C@@H]1N(C)c1ncnc2[nH]ccc12 [CP690550] (first compound 0.0004 µM, partner dose 1 µM) | 105% | 100% | 75.5% | 115% | 76.1% | 56.3%
20 | CC(=O)c1c(C)c2cnc(Nc3ccc(N4CCNCC4)cn3)nc2n(C2CCCC2)c1=O [palbociclib] + C=CCn1c(=O)c2cnc(Nc3ccc(N4CCN(C)CC4)cc3)nc2n1-c1cccc(C(C)(C)O)n1 [MK1775] (first compound 0.04 µM, partner dose 0.02 µM) | 66.6% | 52% | 78.1% | 54.5% | 63.5% | 71.7%
